Data as given in the supplement of paper PMC3334620.
The full ranking holds about 33,000 sequences; the median of “E-score (-0.5 to 0.5)” is about -0.041, and the highest 2% start at about 0.37. Some of the results follow.

molecular target: T1, Ecm22 (UniProt Q05958); experiment: PBM E-score (8-mer binding enrichment) (E-score (-0.5 to 0.5)); higher = stronger / more preferred TF binding; most listed sequences are background and not binding sites; conditions: protein concentration: 200 nM; construct: GST-full length
T1 sequence: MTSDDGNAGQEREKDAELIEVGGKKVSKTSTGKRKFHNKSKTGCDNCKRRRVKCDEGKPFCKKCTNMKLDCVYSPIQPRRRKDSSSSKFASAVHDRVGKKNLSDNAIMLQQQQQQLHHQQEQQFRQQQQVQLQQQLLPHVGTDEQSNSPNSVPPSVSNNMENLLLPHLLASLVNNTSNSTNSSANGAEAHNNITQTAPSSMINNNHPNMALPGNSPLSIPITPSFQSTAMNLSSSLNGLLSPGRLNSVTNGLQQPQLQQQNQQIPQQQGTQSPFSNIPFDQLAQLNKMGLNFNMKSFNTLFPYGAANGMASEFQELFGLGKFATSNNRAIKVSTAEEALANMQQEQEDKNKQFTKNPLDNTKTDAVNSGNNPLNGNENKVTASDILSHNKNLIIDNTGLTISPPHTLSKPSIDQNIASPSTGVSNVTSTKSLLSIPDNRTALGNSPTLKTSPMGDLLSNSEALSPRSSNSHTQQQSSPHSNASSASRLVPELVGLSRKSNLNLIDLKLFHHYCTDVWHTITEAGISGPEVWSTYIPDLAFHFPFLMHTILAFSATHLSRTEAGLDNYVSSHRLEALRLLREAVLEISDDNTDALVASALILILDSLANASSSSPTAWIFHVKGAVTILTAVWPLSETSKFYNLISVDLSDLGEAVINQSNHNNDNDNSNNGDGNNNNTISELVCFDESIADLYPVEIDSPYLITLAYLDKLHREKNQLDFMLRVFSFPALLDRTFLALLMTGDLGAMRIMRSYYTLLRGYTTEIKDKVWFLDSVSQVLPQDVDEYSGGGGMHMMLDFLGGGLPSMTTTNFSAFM
Experimental: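 Universal 'all 10-mer' protein binding microarrays (Agilent AMADID 015681) probed with GST-tagged S. cerevisiae TFs (full-length or DBD) made by in vitro transcription/translation (PURExpress), about 100-200 nM. Bound TF was detected with fluorescent anti-GST. Each ungapped 8-mer (which stands for itself and its reverse complement) is scored by the PBM enrichment score (E-score), a modified Wilcoxon-Mann-Whitney statistic from -0.5 to +0.5, computed with the Universal PBM Analysis Suite. Scale: above 0.35 generally sequence-specific binding.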

Row | Sequence | PBM E-score
1 | TAAGCCAA | -0.0583
2 | ACACAATA | -0.112
3 | GACAGTGA | -0.107
4 | GAACCACA | 0.0261
5 | GAGAACAC | -0.0884
6 | CGCCATAA | -0.192
7 | TCGAAGCA | -0.103
8 | ATAAGTCC | -0.0838
9 | ACCCAGAT | -0.203
10 | GACGTGAC | 0.0525
11 | CGGACGTC | 0.105
12 | ATGGCATC | -0.00566
13 | GGAGCGAA | 0.264
14 | GTATTTGA | -0.00911
15 | ATCTATTC | 0.0461
16 | TATTAAGA | 0.12
17 | AGATTTCA | -0.0146
18 | CCTGTTCC | -0.188
19 | ACGGGATG | 0.139
20 | CGTCGCAC | 0.278
21 | CGGTACGC | 0.315
22 | GGGCAGTA | -0.0551
23 | GGGTCACA | -0.116
24 | ATAGAAGA | -0.135
25 | GACCAACA | 0.0643

Row | Sequence | PBM E-score
26 | GCATCATA | 0.00953
27 | ACATAGGT | 0.0224
28 | GACGATAC | 0.127
29 | TCATAGAA | -0.00509
30 | GAAAGTAC | 0.0666
31 | ACACTTGA | -0.173
32 | CCACATAC | 0.178
33 | AGAGCCCC | 0.0308
34 | CCTACGCC | -0.34
35 | AGAGCGAG | 0.307
36 | GTAGACGA | 0.119
37 | ACACACCA | 0.0138
38 | ATCACGCC | -0.0722
39 | CCGAGCCA | 0.138
40 | TCAGGAAA | -0.0259
41 | ATATTGGA | -0.13
42 | AAGTGATC | 0.0249
43 | CTCGGTCA | 0.246
44 | GATTACGC | 0.00603
45 | ACCCGGGG | -0.141
46 | TAGTGGGA | -0.315
47 | ACCGCTAA | 0.144
48 | CATTATCA | -0.129
49 | AGACAATA | 0.111
50 | AGCGAAAG | 0.127

Row | Sequence | PBM E-score
51 | AATTTAAT | 0.0583
52 | GCGAGAGC | 0.182
53 | GCAAATGA | 0.0372
54 | AATTTGCT | -0.0782
55 | CAAATGCA | 0.00544
56 | TAGTATGA | 0.0394
57 | CGAAAGAG | 0.0563
58 | CGCATAAC | 0.168
59 | ATTACGTC | 0.00802
60 | TATTCCGA | 0.0652
61 | AACTTGCT | -0.208
62 | ACCTGGAG | -0.0996
63 | TACTGCAA | -0.124
64 | CGAAACAC | 0.0709
65 | GACTTCCC | -0.212
66 | CAGGCCTC | -0.294
67 | GCTCGACA | -0.102
68 | CACGATTC | 0.244
69 | AACAAGGC | -0.237
70 | AAATGCAT | -0.0262
71 | ATGACAGG | -0.0225
72 | ACACGTGG | -0.232
73 | AGATGCTA | -0.00158
74 | GGCATAAC | -0.13
75 | AACATGGG | -0.101

Row | Sequence | PBM E-score
76 | CTGTCGGA | 0.0999
77 | ACAAGTCA | 0.0408
78 | TACAGTGA | -0.164
79 | TCCAGCCA | -0.299
80 | ACCCTTGG | -0.233
81 | AGCAAGGC | -0.121
82 | CCAATCGC | -0.00902
83 | TGCAGGCA | -0.122
84 | CTAGAGGC | -0.156
85 | CCGTCTCG | 0.231
86 | GTGCCGGA | -0.0508
87 | GCTTAACC | -0.0005
88 | AACCACTA | -0.147
89 | GGACGGGA | -0.0915
90 | GAGTAAGA | -0.0087
91 | ATCACGGC | -0.0305
92 | CGCTTTTA | -0.0021
93 | AGTGACGC | 0.0126
94 | AATATGAT | 0.0267
95 | GTTCCTGA | 0.125
96 | ACGATCGA | 0.277
97 | AGTGCAGC | -0.13
98 | CTCGCCCA | -0.0108
99 | CATTGCAA | -0.155
100 | TAAAGCAA | -0.0154

Row | Sequence | PBM E-score
101 | AATGCCGT | 0.109
102 | AGGACGAA | -0.00901
103 | AATCACTA | -0.089
104 | ATTGGGGA | -0.132
105 | CATGAGCC | -0.0951
106 | CGCAGTAG | -0.131
107 | CTAGTGAC | -0.165
108 | AGCCTTCA | -0.236
109 | TGCAGCCA | -0.171
110 | AATTGCCA | 0.0187
111 | ATTGTCCG | 0.0363
112 | CCATAGCG | -0.0678
113 | TATCACCA | 0.0407
114 | AGCCAGCT | -0.132
115 | CGCATCGA | 0.145
116 | AACACCTC | -0.168
117 | CTCGATGA | -0.0535
118 | GGTACAAA | -0.0856
119 | GAAGATGC | -0.0972
120 | AATACAAA | 0.206
121 | ACGCGGTG | -0.00032
122 | CCGATATC | 0.0392
123 | AAGGGCTG | -0.377
124 | CGCCAAAC | 0.0809
125 | GGAGGGAA | -0.0738

Row | Sequence | PBM E-score
126 | GAACCTAA | -0.12
127 | CAGACAGG | -0.155
128 | GGCGATCA | -0.159
129 | CCTATACC | -0.0658
130 | AGATTGGA | -0.135
131 | AAACAATG | -0.0509
132 | AATAAATG | -0.0714
133 | CGCCTGTA | -0.166
134 | ATCCGGAG | 0.0978
135 | GTGGGCTA | -0.28
136 | CATGTCTA | -0.138
137 | AGAAGTCG | -0.0775
138 | ACATGCAT | -0.0252
139 | CCCACCGG | -0.218
140 | GTGGATGA | -0.123
141 | AGAAATAA | -0.0747
142 | GCCATAGA | 0.0195
143 | AATGGTGA | -0.128
144 | AATCTTAA | -0.0586
145 | CGGCGAAA | 0.0597
146 | CGGGCTGA | -0.161
147 | AGACTTAA | -0.149
148 | AGCACGGC | -0.00675
149 | ACAGGAGT | -0.248
150 | ATCCAATC | -0.0689

Row | Sequence | PBM E-score
151 | GAGTCCCC | -0.309
152 | ACTTAGAA | 0.0435
153 | TACGCTGA | 0.253
154 | GTCAGAGA | -0.149
155 | TTATGGAA | -0.0194
156 | ATGCAAAC | 0.114
157 | ATTGACGA | 0.0606
158 | ACTTTTAC | 0.166
159 | CAGCCTGA | -0.187
160 | CCCATAAA | -0.159
161 | GACAGGCA | -0.0606
162 | ACTGAAGT | -0.1
163 | GTGGGTAA | -0.111
164 | ATTCGATC | 0.0614
165 | CACGCGCC | -0.179
166 | CGGTGTAA | 0.171
167 | AAAGTATT | -0.0376
168 | GGTATAGA | -0.0121
169 | GAGCAGGC | -0.0285
170 | AGCCCCGA | -0.148
171 | TAGGCCAA | -0.116
172 | ATCATAAG | -0.0578
